{"source": "the supplement of paper PMC9446081", "note": "Hit rate of the full screen: of about 39,000 compounds, about 220 (0.56%) showed activity. The list shows a part of the results.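 Also: static incubation at 37 °C against the wild-type strain, values averaged over two biological replicates.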"}
{"tested_on": "Escherichia coli K-12 BW25113", "assay": "relative growth (OD600 normalised to plate interquartile mean) (fraction); higher = less growth inhibition, active = 0.2 or less", "conditions": "50 µM; LB; incubation time: overnight (16-24 h)"}
{"smiles": "C[C@@H]1CN([C@H](C)CO)C(=O)c2cccc(NC(=O)CCCCCC(=O)Nc3ccccc3N)c2O[C@H]1CN(C)C(=O)Nc1ccc(F)cc1", "relative growth": "inactive: 1.01"}
{"smiles": "C[C@@H]1CCCCO[C@H](CN(C)C(=O)Nc2ccccc2)[C@H](C)CN([C@H](C)CO)C(=O)c2cc(NC(=O)c3ccccc3)ccc2O1", "relative growth": "inactive: 1.02"}
{"smiles": "C[C@H](CO)N1C[C@H](C)[C@@H](CN(C)CC2CCCCC2)Oc2c(NC(=O)c3cnccn3)cccc2C1=O", "relative growth": "inactive: 1.01"}
{"smiles": "COC(=O)C1=COC(OC2OC(CO)C(O)C(O)C2O)C2C(C)CC(=O)C12", "note": "(stereo unspecified)", "relative growth": "inactive: 1.11"}
{"smiles": "CC(=O)N1[C@H](CO)[C@@H](c2ccccc2)[C@@H]1CNC(=O)CN1CCOCC1", "relative growth": "inactive: 0.998"}
{"smiles": "Cc1noc(C)c1NC(=O)Nc1cccc2c1O[C@@H](CN(C)C(=O)Nc1ccc(C(F)(F)F)cc1)[C@@H](C)CN([C@@H](C)CO)C2=O", "relative growth": "inactive: 0.964"}
{"smiles": "OC[C@@H]1Cc2ccccc2CN1", "relative growth": "inactive: 0.997"}
{"smiles": "CN1C(=O)c2cc(NC(=O)Cc3cccs3)ccc2OC[C@H]2O[C@H](CC(=O)NCc3ccc(-c4ccccc4)cc3)CC[C@H]21", "relative growth": "inactive: 1.02"}
{"smiles": "C[C@H]1CCCCO[C@H](CN(C)C(=O)Nc2cccc3ccccc23)[C@@H](C)CN([C@@H](C)CO)C(=O)c2cc(NC(=O)CCCN(C)C)ccc2O1", "relative growth": "inactive: 0.979"}
{"smiles": "COc1ccc(S(=O)(=O)N(C)C[C@@H]2OCCCC[C@@H](C)Oc3ccc(NC(=O)Nc4cccc5ccccc45)cc3C(=O)N([C@H](C)CO)C[C@@H]2C)cc1", "relative growth": "inactive: 1.03"}
{"smiles": "C[C@@H]1CN([C@@H](C)CO)C(=O)Cc2cc(NS(=O)(=O)c3cn(C)cn3)ccc2O[C@H]1CN(C)C(=O)Nc1ccc(F)cc1", "relative growth": "inactive: 0.991"}
{"smiles": "Cc1noc(C)c1NC(=O)Nc1ccc2c(c1)C(=O)N([C@H](C)CO)C[C@@H](C)[C@@H](CN(C)Cc1ccc(Oc3ccccc3)cc1)O2", "relative growth": "inactive: 1.03"}
{"smiles": "C[C@H]1CN([C@@H](C)CO)C(=O)Cc2cc(NC(=O)CCN3CCOCC3)ccc2O[C@@H]1CN(C)CC1CCCCC1", "relative growth": "inactive: 0.979"}
{"smiles": "C[C@@H]1CCCCO[C@@H](CN(C)Cc2ccncc2)[C@H](C)CN([C@@H](C)CO)C(=O)c2cc(NC(=O)Nc3ccc4c(c3)OCO4)ccc2O1", "relative growth": "inactive: 0.995"}
{"smiles": "Cc1ccc(S(=O)(=O)Nc2ccc3c(c2)C(=O)N([C@H](C)CO)C[C@H](C)[C@H](CN(C)C(=O)CCC(F)(F)F)OCCCC[C@H](C)O3)cc1", "relative growth": "inactive: 1.03"}
{"smiles": "CCC[C@@H]1C[C@@H](C(=O)N[C@H]([C@H]2O[C@H](SC)[C@H](O)[C@@H](O)[C@H]2O)[C@H](C)O)N(C)C1", "relative growth": "inactive: 0.928"}
